Measurements reported in ChEMBL document CHEMBL4888484, “Replenishing the malaria drug discovery pipeline: Screening and hit evaluation of the MMV Hit Generation Library 1 (HGL1) against asexual blood stage Plasmodium falciparum ,using a nano luciferase reporter read-out” (2022).
Where “and” joins values, the source holds several entries; their conditions need not be identical. Equal entries are not always repeated. Screen size: about 150,000 compounds; about 540 (0.36%) showed an effect of 50% or more. This is one part of the list.

System: Plasmodium falciparum
Assay: Primary screen in NF54 nanoGlo assay, in single point, at 2uM, 72h; a lower Z score goes with more inhibition
Type: functional, Erythrocyte
Settings: timepoint 72 hour

SMILES | % Inhibition [%] | Z score | % Inhibition (2 µM) | Z score (2 µM)
C[C@H](NCCc1c[nH]c2ccccc12)c1cccnc1 | 7 | -0.95 |  | 
CCC(=O)N1N=C(c2c(O)n(C)c(=O)n(C)c2=O)C[C@H]1c1ccc(OC)c(O)c1 | -5 | 1 |  | 
CCCN1CCN(c2cnn3cnnc3c2)CC1 | -3 | 0.34 |  | 
Cc1ccc(OCc2c(C(=O)NCc3ccccc3)c(=O)cc(C)n2CCN2CCOCC2)cc1 | -6 | 0.94 |  | 
Cc1ccc(C(=O)NCc2nc(=O)o[nH]2)c(Br)c1 | -9 | 0.9 |  | 
CC(C)Cn1[nH]c(CC(=O)N2C3CCC2c2ccccc23)cc1=O | 10 | -1.35 |  | 
C[C@]12NC(=O)CN1CCc1ccccc12 | 0 | -0.02 |  | 
Cc1ccccc1C[C@H](C)N(C)C(=O)CN1CCCS1(=O)=O | -5 | 0.78 |  | 
Cc1nc(-c2ccncc2)nc2c1CC(=O)N2CCN1CCOCC1 | -13 | 1.83 |  | 
COc1c(C)ncnc1N1CCC[C@H]1c1cccnc1 | -6 | 1.2 |  | 
O=C(c1ccc(Cl)cc1)[C@H]1CCCN(Cc2cccc3c2OCO3)C1 | -15 | 2.28 |  | 
COC[C@H](NCCc1c[nH]c2ccc(F)cc12)C1CC1 | 5 | -0.52 |  | 
CCCCC(=O)N1CCN(Cc2ccncc2)[C@@H]2CS(=O)(=O)C[C@@H]21 | 8 | -1.6 |  | 
CN1C2CCC1CN(c1ccc(C#N)cn1)CC2 (centres undefined) | -3 | 0.33 |  | 
O=C(c1cnns1)N1CCC[C@H](c2n[nH]c(=O)o2)C1 | 25 | -2.86 |  | 
CCc1c(C(=O)N[C@H]2CCCc3ccccc32)c(=O)cc(C)n1CCN1CCCCC1 | -8 | 1.12 |  | 
O=C(NC[C@H]1C[C@@H]2CCN1C[C@@H]2CN1CCOCC1)Nc1ccccc1 | -1 | 0.21 |  | 
CN1CC[C@@H]2CN(S(=O)(=O)c3ccc(-c4ccccn4)s3)C[C@@H]21 | 6 | -0.75 |  | 
Cc1occc1C(=O)Nc1ccc2c(c1)CNCC2 | -4 | 0.49 |  | 
c1cncc(-c2noc(CN3CCOC4CCCCC43)n2)c1 (centres undefined) | -8 | 1.45 |  | 
COc1ccccc1Cn1cc(C(=O)NCCC(C)C)c(=O)c(C(=O)NCc2ccccn2)c1 | 2 | -0.29 |  | 
C[C@@H](Cn1cncn1)NCc1ccc2sccc2c1 | -5 | 0.97 |  | 

SMILES | % Inhibition [%] | Z score | % Inhibition (2 µM) | Z score (2 µM)
COc1ccc(F)c(-c2ccc3c(c2)CNCC3)c1 | 1 | -0.24 |  | 
COc1cccc(C(=O)N2C3CCC2c2cncnc2C3)c1 (centres undefined) | -13 | 2.15 |  | 
Cc1c(C)[n+]([O-])c([C@@H](C(C)C)C2C(=O)N(C)C(=O)N(C)C2=O)n1Cc1ccccc1 | 3 | -0.51 |  | 
Cc1ncccc1CN1CCCC2(C1)OCCO2 | -9 | 1.08 |  | 
COc1ccc(N2C(=O)NC(=O)C3(Cc4cccc(F)c4N4CC(C)CC(C)C43)C2=O)cc1 (centres undefined) | -2 | 0.34 |  | 
CC[C@]1(c2ccccc2)C(=O)NC(=O)N(CN2CCOCC2)C1=O | 7 | -1.03 |  | 
COc1ccc(CCN2C(=O)NC(=O)C3(Cc4ccccc4N4CCOCC43)C2=O)cc1OC (centres undefined) |  |  | -10% and -8% | 1.62 and 0.69
Cc1nc2ccc(N3CCC[C@H]3c3cccnc3)nn2n1 | -4 | 0.62 |  | 
N#Cc1cccc(CNCCc2ccc3c(c2)OCCO3)c1 | 10 | -0.95 |  | 
CC(=O)c1ccc(CN2C3CCC2CC3)cc1 | -16 | 1.79 |  | 
Cc1ccccc1CC(=O)N1CC[C@H]2C(=O)N(Cc3ccc(F)cc3)CCN2CC1 | -9 | 1.21 |  | 
CCCn1cnnc1CNS(=O)(=O)c1ccc2[nH]c(=O)oc2c1 | -5 | 0.67 |  | 
CCOc1ccc(-n2c(=O)[nH]c(O)c([C@@H]3c4ccccc4CCN3C(C)=O)c2=O)cc1 | -5 | 0.64 |  | 
Nc1ccnc(N2C[C@@H](c3cc(F)cc(F)c3)[C@@H]3[C@H]2C2CCN3CC2)n1 | -6 | 0.8 |  | 
CN1CCO[C@@H]2CN(c3ccc4c(Cl)cccc4n3)C[C@@H]21 | 16 | -1.79 |  | 
Cc1nc2c(C)cccc2cc1C(=O)N1C[C@@H]2CC[C@H]1CN(C)C2 | 2 | -0.39 |  | 
COc1ccc(N2C(=O)N=C(O)C3(Cc4ccccc4N4CCN(C)CC43)C2=O)cc1 (centres undefined) | -2 | 0.24 |  | 
CS(=O)(=O)Cc1noc(CN2C3CCC2c2ccccc23)n1 | 2 | -0.29 |  | 
Fc1ccccc1-c1cc(N2C[C@H]3CNC[C@H]3C2)n2nccc2n1 | -7 | 1.28 |  | 
Cc1nsc(C(=O)N[C@@H](C)CF)n1 | -10 | 0.88 |  | 
C1COC(CN2CCOC3CCCCC32)C1 (centres undefined) | -5 | 0.81 |  | 
CCc1c(C(=O)N[C@@H]2CCOc3c(C)cccc32)cnn1CC(C)C | -4 | 0.72 |  | 

SMILES | % Inhibition [%] | Z score | % Inhibition (2 µM) | Z score (2 µM)
O=C1NC(c2ccc(N3N=N3)cc2)(c2ccc(N3N=N3)cc2)c2ccccc21 | 16 | -2.2 |  | 
CS(=O)(=O)CCC(=O)Nc1ccc(C#N)c(C(F)(F)F)c1 | -3 | 0.65 |  | 
CCC(C)(C)N(C)Cc1cccnc1C | 0 | 0.01 |  | 
Cc1cc(C)c(CNCC(F)F)c(C)c1 | 3 | -0.3 |  | 
CN(C)Cc1ccccc1-c1ccc2n(c1=O)C[C@H]1C[C@@H]2CN(Cc2ccc(F)cc2)C1 | 13 | -1.56 |  | 
O=C(Cc1ccncc1)N1CC(N2CCOCC2)C1 | -1 | 0.12 |  | 
Cc1nc(C)c(CN2CCOC3(CCCC3)C2)s1 | 0 | 0.03 |  | 
C[C@@H](Cn1cncn1)NCc1ccco1 | -5 | 0.64 |  | 
O=C1Nc2ccccc2O[C@H]1C(=O)N1CCC2(CC1)OCCO2 | -16 | 1.91 |  | 
Cc1cc(Br)ccc1Cc1noc([C@H]2C[C@H]3CC[C@@H]2N3)n1 | 3 | -0.55 |  | 
Cc1cccc2[nH]cc(CCN=C(N(C)C)N(C)C)c12 | 0 | 0.05 |  | 
CC(C)c1nnc(N2CCN(C)C(C)(C)C2)s1 | -16 | 2.13 |  | 
O=C(Cc1cccc(F)c1)N1C[C@@H]2CC[C@H]1CN(Cc1cscn1)C2 | -8 | 1.28 |  | 
CC[C@]1(N2CCN(C(=O)COc3cccc(Cl)c3)CC2)CCN(S(C)(=O)=O)C1 | -5 | 0.53 |  | 
NC(=O)c1ccnc(N2CCN3CCCC[C@H]3C2)c1 | -6 | 0.66 |  | 
O=C(O)C1CC2CCC1N2Cc1csc(C2CCCCC2)n1 (centres undefined) | -1 | 0.18 |  | 
COc1ccc(CNC2CCCC2O)cn1 (centres undefined) | -15 | 1.94 |  | 
CCc1cc2c(N3CCN4CCOC[C@]4(CO)C3)nc(C)nc2s1 | 2 | -0.36 |  | 
CCN1CC2(CN(Cc3cccnc3)C[C@@H]3C[C@@H](O)CN32)C1 | -4 | 0.65 |  | 
COC(C)(C)C[C@H](C)NC1(c2ccc(C)cc2)CC1 | 1 | -0.09 |  | 
O=C(Cc1cccs1)NCC1CCN(C(=O)Oc2ccccc2)CC1 | -5 | 0.99 |  | 
Cc1nc(Cn2c(=O)oc3cccnc32)sc1C | -3 | 0.5 |  | 

SMILES | % Inhibition [%] | Z score | % Inhibition (2 µM) | Z score (2 µM)
c1ccc(C2CNC3CCCCC32)cc1 (centres undefined) | -16 | 1.83 |  | 
CCc1ccc(NC(=O)N2CCN3CCC2CC3)cc1F | 13 | -1.28 |  | 
C[C@H]1COC(C)(C)CN1CCc1nsc2ccccc12 | -4 | 0.61 |  | 
COc1ccc2c(c1)[C@@]1(CCN(C(=O)c3ccccc3C)C1)C(=O)N2 | -3 | 0.33 |  | 
CNC1(c2nnnn2-c2ccccc2)CCCCC1 | -6 | 0.91 |  | 
O=C(c1ccon1)N1C[C@@H](c2ccc3c(c2)OCO3)[C@@H]2[C@H]1C1CCN2CC1 | -4 | 0.82 |  | 
Cn1ncnc1CN1C2CCC1CC(Cc1ccccc1)C2 (centres undefined) | -17 | 2.21 |  | 
Cc1nc(N2C[C@H]3CC[C@@H](C2)NC3)c2ccsc2n1 | -19 | 2.35 |  | 
CC[C@]1(c2ccccc2)C(=O)N(C)C(=O)N(C(=O)c2ccccc2)C1=O | -6 | 1.06 |  | 
COc1ccccc1[C@H]1CN(c2ccc(C(C)=O)cn2)[C@@H]2C3CCN(CC3)[C@H]12 | -1 | 0.09 |  | 
O=C(CN1C(=O)c2cccnc2Oc2ccccc21)N1CCC2(CC1)OCCO2 | -10 | 1.29 |  | 
COCCN1[C@@H]2CN(Cc3ccncc3Cl)C[C@@H]2OCCS1(=O)=O | -4 | 0.64 |  | 
CCc1nsc(NC2CCN3CCCC3C2)n1 (centres undefined) | -1 | 0.26 |  | 
N=C1c2ccccc2CN1c1ncc(Cl)cc1Cl | -4 | 0.58 |  | 
O=C(NCC#CCN1CCCCC1)c1ccsc1 | -1 | 0.27 |  | 
CC1CCC(NCCC2(C)OCCO2)CC1C (centres undefined) | -10 | 1.28 |  | 
O=c1[nH]c2ccccc2c(=O)n1CC1(N2CCOCC2)CCCCC1 | -5 | 0.9 |  | 
O=C(c1cc[nH]n1)N1[C@H]2CC[C@@H]1c1cnc(-c3ccccc3)nc1C2 | -5 | 0.73 |  | 
CCn1cc(C(=O)Nc2ccc(F)cc2F)c2cccnc21 | 13 | -1.68 |  | 
Cc1ccc(F)cc1C(=O)N1C[C@H](c2ccccc2)[C@@H]2[C@H]1C1CCN2CC1 | -1 | 0.22 |  | 
CC[C@]1(c2ccccc2)C(=O)N(C(=O)c2ccccc2)C(=O)N(C(=O)c2ccccc2F)C1=O | -3 | 0.33 |  | 
